Source: patent US20060281072A1 (CRUCELL HOLLAND B V, published 2006)

B1: phage antibody SC02021 (scFv) (scFv)
scFv: MAEVQLVESGGGLVQPRGSLRLSCAASGFTFSSYAMNWVRQAPGKGLEWVAVISYDGSNKYYADSVKGRFTISRDNSKNTLYLQMNSLRAEDTAVYYCAKDRYITLPNALDYWGQGTLVTVLEGTGGSGGTGSGTGTSEL[here about 100 residues without letters]YCQQYKSNPPTFGQGTKVEIKRAA
B2: phage antibody SC02010 (scFv) (scFv)
scFv: MAEVQLVESGGGLIQPGGSLRLSCAASGFTFSGYPMNWVRQAPGKGLEWVAVISYDGSNKYYADSVKGRFTISRDNSKNTLYLQMNSLRAEDTAVYYCARDMSGFHEFDYWGQGTLVTVLEGTGGSGGTGSGTGTSELTQSPSSLSASVGDRVTIT[here about 80 residues without letters]FGQGTKVEIKRAA

Key:
[1] = molecular target: T1, human OX40-receptor (human, UniProt P43489 29-277); test: flow cytometry, mix of OX40-receptor transfected (green, PKH67) and control transfected PER.C6 cells, M13 anti-phage PE
T1 construct: whole, on cells; also called CD134; ACT-4
T1 sequence (looked up): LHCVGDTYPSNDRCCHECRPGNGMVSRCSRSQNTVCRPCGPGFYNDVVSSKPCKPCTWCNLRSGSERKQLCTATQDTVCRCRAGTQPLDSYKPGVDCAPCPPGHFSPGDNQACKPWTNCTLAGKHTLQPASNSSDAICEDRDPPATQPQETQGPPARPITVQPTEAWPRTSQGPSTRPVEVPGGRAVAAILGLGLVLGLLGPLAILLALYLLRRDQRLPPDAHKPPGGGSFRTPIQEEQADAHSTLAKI
Experimental: In another assay the phage antibodies were analyzed for their ability to bind PER.C6™ cells that recombinantly express human OX40-receptor. To this purpose PER.C6™ cells were transfected with a plasmid carrying a cDNA sequence encoding human OX40-receptor or with the empty vector and stable transfectants were selected using standard techniques known to a person skilled in the art (Coligan et al., 2001). For flow cytometry analysis, phage antibodies were first blocked in an equal volume of 4% MPBS for 15 minutes at 4° C. prior to the staining of the OX40-receptor- and control transfected PER.C6™ cells. The blocked phages were added to a mixture of unlabelled control transfected PER.C6™ cells and OX40-receptor transfected PER.C6™ cells that were labelled green using a lipophylic dye (PKH67, Sigma). The binding of the phage antibodies to the cells was visualized using a biotinylated anti-M13 antibody (Santa Cruz Biotechnology) followed by streptavidin-phycoerythrin (Caltag).

[2] = molecular target: T2, human OX40-Ig fusion protein (human, UniProt P43489 29-214); test: phage ELISA on coated human OX40-Ig, anti-M13 peroxidase, absorbance at 492 nm
T2 construct: extracellular domain; Bought (Alexis Biochemicals); not shown: CH2 and CH3 domains of human IgG1
T2 sequence (looked up): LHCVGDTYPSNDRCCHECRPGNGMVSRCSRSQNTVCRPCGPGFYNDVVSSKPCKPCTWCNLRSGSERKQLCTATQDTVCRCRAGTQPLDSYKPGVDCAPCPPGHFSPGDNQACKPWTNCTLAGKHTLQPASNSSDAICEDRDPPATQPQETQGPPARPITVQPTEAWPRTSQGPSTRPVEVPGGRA
Experimental: Selected phage antibodies that were obtained in the screen described above, were validated in ELISA for specificity. For this purpose, human OX40-Ig was coated to Maxisorp™ ELISA plates. After coating, the plates were blocked in 2% MPBS. The selected phage antibodies were incubated in an equal volume of 4% MPBS. The plates are emptied, washed once in PBS, after which the blocked phages were added. Incubation was allowed to proceed for 1 hour, the plates were washed in PBS containing 0.1% Tween-20 and bound phages were detected using an anti-M13 antibody conjugated to peroxidase. As a control, the procedure was performed simultaneously using a control phage antibody directed against thyroglobulin (De Kruif et al. 1995a and 1995b), which served as a negative control.

[3] = molecular target: T1, human OX40-receptor; test: flow cytometry on synovial fluid mononuclear cells, M13 anti-phage APC against CD4 PE
Experimental: In another assay the phage antibodies were analyzed for their ability to bind to OX40-receptor positive CD4+ T-cells derived from inflamed tonsils or from synovial fluid from patients suffering from rheumatoid arthritis. As a control, the staining pattern of the anti OX40-receptor phage antibodies on peripheral blood mononuclear cells (MNC) is also shown.
Inflamed tonsils were obtained from patients undergoing routine tonsillectomy. Tonsils were minced and the MNC fraction was isolated by density centrifugation. Flow cytometric analysis of the binding of the anti-OX40-receptor phage antibodies to the OX40+ CD4+ T-cells was performed as described above. The CD4+ T-cells were distinguished from total tonsil MNC using a FITC conjugated antibody against CD4. As shown in FIGS. 3A and 3B the selected anti-human OX40-receptor phage antibodies called SC02008, SC02009, SC02010, SC02011, SC02012 and SC02021 selectively stain a subset of CD4+ T-cells within tonsil and synovial fluid mononuclear cells respectively, while they display minor staining of peripheral blood CD4+ T-cells (FIG. 3C).

Binder | binding result [1] | binding result [2] | binding result [3]
B1 | binds | binds | –
B2 | – | binds | binds
